Experimental data reported in the supplement of paper PMC12217912.
This is one part of the list. Sequences were assembled here from the parent chain. Inactive controls read about 0.05.

B1: TEV protease; numbered along this chain (parent)
chain: MGESLFKGPRDYNPISSSICHLTNESDGHTTSLYGIGFGPFIITNKHLFRRNNGTLVVQSLHGVFKVKDTTTLQQHLVDGRDMIIIRMPKDFPPFPQKLKFREPQREERICLVTTNFQTKSMSSMVSDTSCTFPSGDGIFWKHWIQTKDGQCGSPLVSTRDGFIVGIHSASNFTNTNNYFTSVPKNFMELLTNQEAQQWVSGWRLNADSVLWGGHKVFMVKPEEPFQPVKEATQL

Variants of: B1
Test: raw area under fraction-flipped curve 0-4 h after induction (AUC4h, not background-subtracted), DNA-recorder readout of cleavage of the substrate (dimensionless); higher = more cleavage of the substrate by the protease variant
Conditions: temperature: 34 °C; time window: 0-4 h after rhamnose induction
Procedure: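 In vivo DNA recorder in E. coli TOP10(DE3) ΔrhaA at 34 °C. Each TEVp single-site mutant (parent TEVp 0) is paired with a single-site variant of the 7-mer TEVs (canonical ENLYFQ|S). The substrate sits between flexible linkers in a Bxb1-sfGFP-TEVs-SsrA fusion, so cleavage stabilises Bxb1 and speeds flipping of a recombination array, read by NGS. The value is the raw area under the fraction-flipped curve over 0-4 h after rhamnose induction (AUC4h), with ≥20 reads per time point. It is not background-subtracted; inactive controls average about 0.047.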
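Note: Bxb1 expression induced with 0.2% (w/v) L-rhamnose at OD600 near 0.5, cultures sampled hourly, flipped fraction per protease–substrate barcode pair counted by paired-end Illumina sequencing.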

Variant	area with substrate ENLAFQS	area with substrate ENLDFQS	area with substrate ENLEFQS	area with substrate ENLFFQS	area with substrate ENLHFQS	area with substrate ENLIFQS	area with substrate ENLNFQS	area with substrate ENLPFQS	area with substrate ENLQFQS	area with substrate ENLRFQS	area with substrate ENLWFQS	area with substrate ENLSFQS	area with substrate ENLVFQS	area with substrate ENLCFQS	area with substrate ENLLFQS	area with substrate ENLKFQS	area with substrate ENLGFQS	area with substrate ENLMFQS	area with substrate ENLTFQS
E107P	0.0385	0.0476	0.07	0.0733	0.0753	0.0679	0.0649	0.062	0.0861	0.0719	0.087	–	–	–	–	–	–	–	–
E107R	0.0627	0.067	0.0685	–	0.0684	–	0.0735	0.058	–	–	–	0.0203	0.0861	–	–	–	–	–	–
R109V	0.0517	0.0595	–	0.0813	0.0696	0.0761	0.0841	0.0706	0.0621	0.0575	0.0593	–	–	0.0663	0.0788	–	–	–	–
I110L	0.0581	0.0675	0.0763	–	0.0672	0.0786	0.0744	–	0.0791	0.0654	–	0.0505	–	–	0.0659	0.0902	–	–	–
V113R	0.0514	0.0651	0.0276	0.059	0.0771	0.0621	0.0517	–	0.0337	0.0638	–	0.0408	0.0632	0.0645	–	0.0735	–	–	–
T114E	0.0709	0.0624	0.0554	0.065	0.0688	0.0787	–	0.0521	–	–	0.0653	–	0.0795	–	0.0814	–	–	–	–
T114I	0.0733	0.0767	0.0441	–	0.0675	0.0796	0.0648	0.0539	0.0785	0.0696	–	0.0599	–	–	0.0703	0.0771	0.0586	0.0418	0.0718
N116H	0.0524	–	–	0.0723	0.0582	–	–	–	–	–	–	0.0746	–	–	–	–	0.0912	–	–
F117C	0.0525	0.0544	0.105	0.0488	0.0532	0.047	0.0503	0.0246	–	–	–	–	0.0638	0.0557	0.119	0.085	0.0641	–	0.0735
F117Q	0.0837	0.0676	0.0565	0.0955	0.0847	–	0.0442	–	0.0683	–	0.0748	–	–	0.0665	–	0.0776	0.0608	–	–
F117S	0.0629	0.0593	–	0.0982	0.083	0.0728	0.0582	0.0583	–	0.075	0.0996	0.0525	0.083	0.076	0.0717	–	–	–	–
Q118D	0.0669	0.0739	0.0699	0.0607	–	0.0798	–	0.0615	–	0.0701	–	0.052	–	–	–	0.0732	0.0588	–	–
Q118I	0.0486	0.0618	0.0706	0.0806	–	0.0795	0.0551	0.0685	0.123	0.0736	–	0.0657	–	0.0711	0.0765	0.0862	–	–	–
Q118K	0.0693	–	0.065	0.0823	0.0678	–	0.0598	0.066	0.0822	0.0667	–	0.0641	–	–	–	0.0632	–	0.0927	0.0829
T119V	0.0603	0.0514	–	0.0758	0.0715	–	0.0597	–	–	–	0.0902	0.057	–	0.0661	–	0.0757	–	0.0718	–
T119Y	0.0594	0.0552	0.0986	0.089	–	–	0.0759	–	0.117	0.0751	0.0677	0.0493	0.0592	–	0.0909	0.0767	0.0687	–	–
K120S	0.0626	–	0.0589	0.102	0.0706	–	0.0576	0.0687	0.0641	0.0718	0.0677	0.0696	–	0.0635	–	0.06	–	–	0.0567
M122R	0.0752	–	–	0.112	0.0794	0.0914	0.0368	0.0492	0.0617	0.0889	–	0.0673	–	0.0539	–	–	–	–	–
S123C	0.0421	0.059	–	0.0849	0.0785	0.0756	0.0622	0.0721	0.0647	0.0675	0.0694	0.0753	–	0.0714	0.0667	0.0951	–	–	–
S123Y	0.0622	0.0644	–	–	0.0564	–	0.0698	–	–	–	–	0.0734	–	–	0.0645	0.0731	0.0702	–	–
S124H	0.0676	0.0638	0.0583	0.113	0.0717	0.0787	–	–	–	–	0.0522	–	–	–	0.0752	0.09	0.0655	–	–
S124L	0.069	0.0643	0.0569	0.0561	0.0645	0.0584	0.0637	0.0719	0.0666	–	–	0.0454	–	–	0.0417	–	0.0559	–	–
M125H	0.0717	0.0646	0.0737	0.0736	0.0888	0.0864	0.0681	0.0744	0.0765	0.0705	–	0.0653	0.0943	0.0735	0.0504	–	–	–	–
M125I	0.0825	0.0613	–	0.0823	–	–	0.0851	0.0712	0.068	–	–	–	–	–	–	0.0492	–	–	–
S127C	0.0706	0.0656	0.0698	0.0852	0.071	0.103	0.0742	0.0239	0.0836	0.0781	–	0.0702	–	0.0969	0.0589	0.0816	–	–	–
T129N	0.0422	0.0669	0.0527	0.0863	0.0655	–	0.0754	0.0712	0.0671	–	0.0757	0.068	0.0755	0.0603	–	0.0666	0.0605	–	–
S130H	0.0636	0.0573	–	0.0782	0.0832	0.0749	0.0666	–	0.0662	–	0.0612	0.0649	–	–	0.0719	0.0941	–	–	–
S130K	0.0556	0.0553	0.0562	0.0755	–	0.0726	–	0.07	0.0435	–	–	0.061	0.0802	0.0529	0.0812	0.0749	–	–	–
S130M	0.0704	0.0647	–	0.0566	0.0688	0.0897	0.0592	0.0543	0.0604	–	0.0534	0.0651	–	0.0699	0.0877	0.0803	–	–	–
F133I	0.0942	0.0684	–	0.0899	0.0661	0.0895	0.0675	–	–	–	–	–	0.0934	–	–	0.0846	–	–	–
